The IC50 comes from the fitted curve, where viability falls to half of the control; a limit (>, <) means that the fit lies beyond the doses tested. AUC is the area under the same curve over the 256-fold range up to the top dose, as a fraction; it is 1 without any effect and falls as sensitivity rises. Any top dose called inferred was calculated from the reported fits.
Compound: O=C1NC(=NCc2cccs2)S/C1=C\c1ccc2ncccc2c1 [RO-3306]
Experiment: Viability of human cancer cell lines after 72 h of drug (GDSC screen)
Details: top dose 5 µM; top dose inferred
Method: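 Human cancer cell lines in 384-well plates, medium with 10% serum, drug for 72 h over a 256-fold dose range (nine 2-fold or five 4-fold steps up to the top dose). Adherent lines were fixed and stained with the nucleic acid dye Syto60, suspension lines read with resazurin; signal relative to control wells, capped at 0 and 100%. One two-parameter sigmoid per drug and line, fitted in a mixed model over all curves with the slope shared within a line.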

Cell Line	AUC	IC50 [µM]
SCC-15 (head and neck, adherent)	0.972	> 5
SCC-25 (head and neck, adherent)	0.964	> 5
SCH (stomach, adherent)	0.987	> 5
SF126 (glioma, adherent)	0.705	1.23
SF268 (glioma, adherent)	0.879	> 5
SF295 (glioma, adherent)	0.949	> 5
SF539 (glioma, adherent)	0.899	> 5
SH-4 (melanoma, adherent)	0.955	> 5
SHP-77 (small cell lung carcinoma, semi-adherent)	0.927	> 5
SIMA (neuroblastoma, adherent)	0.975	> 5
SISO (cervix, adherent)	0.984	> 5
SJRH30 (rhabdomyosarcoma, adherent)	0.985	> 5
SJSA-1 (bone, adherent)	0.948	> 5
SK-CO-1 (large intestine, adherent)	0.922	> 5
SK-ES-1 (Ewing sarcoma, semi-adherent)	0.977	> 5
SK-GT-2 (stomach, adherent)	0.926	> 5
SK-GT-4 (oesophagus, adherent)	0.923	> 5
SK-HEP-1 (liver, adherent)	0.986	> 5
SK-LMS-1 (soft tissue, adherent)	0.977	> 5
SK-LU-1 (lung adenocarcinoma, adherent)	0.913	> 5
SK-MEL-1 (melanoma, suspension)	0.993	> 5
SK-MEL-2 (melanoma, adherent)	0.923	> 5
SK-MEL-3 (melanoma, adherent)	0.981	> 5
SK-MEL-5 (melanoma, adherent)	0.978	> 5
SK-MEL-28 (melanoma, adherent)	0.987	> 5
SK-MEL-30 (melanoma, adherent)	0.984	> 5

Cell Line	AUC	IC50 [µM]
SK-MEL-31 (melanoma, adherent)	0.969	> 5
SK-MES-1 (lung squamous cell carcinoma, adherent)	0.933	> 5
SK-MG-1 (glioma, adherent)	0.917	> 5
SK-MM-2 (myeloma, suspension)	0.987	> 5
SK-N-AS (neuroblastoma, adherent)	0.982	> 5
SK-N-FI (neuroblastoma, adherent)	0.908	> 5
SK-N-SH (neuroblastoma, adherent)	0.888	> 5
SK-OV-3 (ovary, adherent)	0.97	> 5
SK-PN-DW (Ewing sarcoma, adherent)	0.984	> 5
SK-UT-1 (soft tissue, adherent)	0.96	> 5
SKG-IIIa (cervix, adherent)	0.869	> 5
SKM-1 (haematopoietic neoplasm, suspension)	0.929	> 5
SKN (uterus, adherent)	0.929	> 5
SKN-3 (head and neck, adherent)	0.921	> 5
SLVL (B-cell lymphoma, suspension)	0.986	> 5
SNB75 (glioma, adherent)	0.973	> 5
SNG-M (endometrium, adherent)	0.976	> 5
SNU-61 (large intestine, adherent)	0.973	> 5
SNU-81 (large intestine, adherent)	0.947	> 5
SNU-182 (liver, adherent)	0.893	> 5
SNU-387 (liver, adherent)	0.942	> 5
SNU-407 (large intestine, adherent)	0.914	> 5
SNU-423 (liver, adherent)	0.948	> 5
SNU-449 (liver, adherent)	0.979	> 5
SNU-C1 (large intestine, suspension)	0.977	> 5
SNU-C2B (large intestine, adherent)	0.98	> 5

Cell Line	AUC	IC50 [µM]
SNU-C5 (large intestine, adherent)	0.975	> 5
SR (lymphoid neoplasm, suspension)	0.945	> 5
ST486 (Burkitt lymphoma, suspension)	0.988	> 5
STS-0421 (soft tissue, adherent)	0.983	> 5
SU8686 (pancreas, adherent)	0.981	> 5
SU-DHL-4 (B-cell lymphoma, suspension)	0.997	> 5
SU-DHL-5 (B-cell lymphoma, suspension)	0.993	> 5
SU-DHL-6 (B-cell lymphoma, suspension)	0.868	2.71
SU-DHL-8 (B-cell lymphoma, suspension)	0.988	> 5
SU-DHL-10 (B-cell lymphoma, suspension)	0.997	> 5
SU-DHL-16 (B-cell lymphoma, suspension)	0.996	> 5
SUIT-2 (pancreas, adherent)	0.983	> 5
SUP-B8 (B-cell leukaemia, suspension)	0.937	> 5
SUP-B15 (lymphoblastic leukaemia, suspension)	0.986	> 5
SUP-HD1 (Hodgkin lymphoma, suspension)	0.982	> 5
SUP-M2 (anaplastic large cell lymphoma, suspension)	0.942	> 5
SUP-T1 (T-cell lymphoblastic leukaemia, suspension)	0.979	> 5
SW13 (adrenal gland, adherent)	0.985	> 5
SW48 (large intestine, adherent)	0.976	> 5
SW620 (large intestine, adherent)	0.99	> 5
SW626 (ovary, adherent)	0.982	> 5
SW684 (fibrosarcoma, adherent)	0.983	> 5
SW756 (cervix, adherent)	0.891	> 5
SW780 (bladder, adherent)	0.974	> 5
SW900 (lung squamous cell carcinoma, adherent)	0.954	> 5
SW948 (large intestine, adherent)	0.973	> 5

Cell Line	AUC	IC50 [µM]
SW954 (urogenital system, adherent)	0.9	> 5
SW962 (urogenital system, adherent)	0.967	> 5
SW982 (soft tissue, adherent)	0.985	> 5
SW1271 (small cell lung carcinoma, adherent)	0.969	> 5
SW1417 (large intestine, adherent)	0.982	> 5
SW1573 (lung adenocarcinoma, adherent)	0.939	> 5
SW1710 (bladder, adherent)	0.721	1.35
SW1783 (glioma, adherent)	0.976	> 5
Saos-2 (osteosarcoma, adherent)	0.978	> 5
SiHa (cervix, adherent)	0.942	> 5
T47D (breast, adherent)	0.952	> 5
T84 (large intestine, adherent)	0.989	> 5
T98G (glioma, adherent)	0.741	1.44
T-T (oesophagus, adherent)	0.978	> 5
TC-71 (Ewing sarcoma, adherent)	0.99	> 5
TC-YIK (cervix, suspension)	0.988	> 5
TCCSUP (bladder, adherent)	0.983	> 5
TE-1 (oesophagus, adherent)	0.909	> 5
TE-4 (oesophagus, adherent)	0.944	> 5
TE-5 (oesophagus, adherent)	0.973	> 5
TE-6 (oesophagus, adherent)	0.894	> 5
TE-8 (oesophagus, adherent)	0.957	> 5
TE-9 (oesophagus, adherent)	0.964	> 5
TE-10 (oesophagus, adherent)	0.986	> 5
TE-11 (oesophagus, adherent)	0.947	> 5
TE-12 (oesophagus, suspension)	0.979	> 5
